# Data reported in the supplement of paper PMC8728848.
# This is one part of the list.
# Experiments:
# Assay in all cases: glycan array binding signal (z-score within array); higher = stronger binding
# Conditions in all cases: glycan notation: IUPAC condensed, linker removed
# [1] = molecular target: Fuc(a1-2)[GalNAc(a1-3)]Gal
# In short: (§1)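 Columns mapping to the same glycan were averaged after glycan names were converted to IUPAC-condensed notation. The data come from 3228 arrays in the Consortium for Functional Glycomics database, limited to those with an available protein sequence. Binding is reported as a within-array Z-score averaged across arrays of one protein sequence and across linkers.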
# [2] = molecular target: Fuc(a1-2)[GalNAc(a1-3)]Gal(b1-3)GalNAc(a1-3)[Fuc(a1-2)]Gal(b1-4)GlcNAc
# In short: as §1
# [3] = molecular target: Fuc(a1-2)[GalNAc(a1-3)]Gal(b1-3)GalNAc(b1-3)Gal(a1-4)Gal(b1-4)Glc
# In short: as §1
# [4] = molecular target: Fuc(a1-2)[GalNAc(a1-3)]Gal(b1-3)GlcNAc
# In short: as §1
# [5] = molecular target: Fuc(a1-2)[GalNAc(a1-3)]Gal(b1-3)GlcNAc(b1-2)Man(a1-3)[Fuc(a1-2)[GalNAc(a1-3)]Gal(b1-3)GlcNAc(b1-2)Man(a1-6)]Man(b1-4)GlcNAc(b1-4)GlcNAc
# In short: as §1
# [6] = molecular target: Fuc(a1-2)[GalNAc(a1-3)]Gal(b1-3)GlcNAc(b1-2)Man(a1-3)[Fuc(a1-2)[GalNAc(a1-3)]Gal(b1-3)GlcNAc(b1-2)Man(a1-6)]Man(b1-4)GlcNAc(b1-4)[Fuc(a1-6)]GlcNAc
# In short: as §1
# [7] = molecular target: Fuc(a1-2)[GalNAc(a1-3)]Gal(b1-3)GlcNAc(b1-3)GalNAc
# In short: as §1
# [8] = molecular target: Fuc(a1-2)[GalNAc(a1-3)]Gal(b1-3)GlcNAc(b1-6)GalNAc
# In short: as §1
# [9] = molecular target: Fuc(a1-2)[GalNAc(a1-3)]Gal(b1-4)Glc
# In short: as §1
# [10] = molecular target: Fuc(a1-2)[GalNAc(a1-3)]Gal(b1-4)GlcNAc
# In short: as §1
# [11] = molecular target: Fuc(a1-2)[GalNAc(a1-3)]Gal(b1-4)GlcNAc(b1-2)Man
# In short: as §1
# [12] = molecular target: Fuc(a1-2)[GalNAc(a1-3)]Gal(b1-4)GlcNAc(b1-2)Man(a1-3)[Fuc(a1-2)[GalNAc(a1-3)]Gal(b1-4)GlcNAc(b1-2)Man(a1-6)]Man(b1-4)GlcNAc(b1-4)GlcNAc
# In short: as §1
# [13] = molecular target: Fuc(a1-2)[GalNAc(a1-3)]Gal(b1-4)GlcNAc(b1-2)Man(a1-3)[Fuc(a1-2)[GalNAc(a1-3)]Gal(b1-4)GlcNAc(b1-2)Man(a1-6)]Man(b1-4)GlcNAc(b1-4)[Fuc(a1-6)]GlcNAc
# In short: as §1
# [14] = molecular target: Fuc(a1-2)[GalNAc(a1-3)]Gal(b1-4)GlcNAc(b1-3)Gal(b1-4)GlcNAc
# In short: as §1
# [15] = molecular target: Fuc(a1-2)[GalNAc(a1-3)]Gal(b1-4)GlcNAc(b1-3)Gal(b1-4)GlcNAc(b1-3)Gal(b1-4)GlcNAc
# In short: as §1
# [16] = molecular target: Fuc(a1-2)[GalNAc(a1-3)]Gal(b1-4)GlcNAc(b1-3)GalNAc
# In short: as §1
# [17] = molecular target: Fuc(a1-2)[GalNAc(a1-3)]Gal(b1-4)GlcNAc(b1-3)[Fuc(a1-2)[GalNAc(a1-3)]Gal(b1-4)GlcNAc(b1-6)]GalNAc
# In short: as §1
# [18] = molecular target: Fuc(a1-2)[GalNAc(a1-3)]Gal(b1-4)GlcNAc(b1-6)GalNAc
# In short: as §1
# [19] = molecular target: Fuc(a1-2)[GalNAc(a1-3)]Gal(b1-4)[Fuc(a1-3)]GlcNAc
# In short: as §1
# [20] = molecular target: Fuc(a1-2)[GalNAc(a1-3)]Gal(b1-4)[Fuc(a1-3)]GlcNAc(b1-3)GalNAc
# In short: as §1
# [21] = molecular target: Fuc(a1-2)[GalNAc(a1-4)]Gal(b1-4)GlcNAc
# In short: as §1
# [22] = molecular target: Fuc(a1-2)[GalNAc(b1-3)]Gal
# In short: as §1
# Fuc(a1-3)GlcNAc = molecular target: Fuc(a1-3)GlcNAc
# In short: as §1
# [23] = molecular target: Fuc(a1-3)[Gal(b1-4)]Glc6S
# In short: as §1
# [24] = molecular target: Fuc(a1-3)[Gal(b1-4)]GlcNAc
# In short: as §1
# [25] = molecular target: Fuc(a1-3)[Gal(b1-4)]GlcNAc(b1-2)Man
# In short: as §1
# [26] = molecular target: Fuc(a1-3)[Gal(b1-4)]GlcNAc(b1-2)Man(a1-3)[Fuc(a1-3)[Gal(b1-4)]GlcNAc(b1-2)Man(a1-6)]Man(b1-4)GlcNAc(b1-4)GlcNAc
# In short: as §1
# [27] = molecular target: Fuc(a1-3)[Gal(b1-4)]GlcNAc(b1-2)Man(a1-3)[Fuc(a1-3)[Gal(b1-4)]GlcNAc(b1-2)Man(a1-6)]Man(b1-4)GlcNAc(b1-4)[Fuc(a1-6)]GlcNAc
# In short: as §1
# [28] = molecular target: Fuc(a1-3)[Gal(b1-4)]GlcNAc(b1-3)Gal(b1-3)[Fuc(a1-4)]GlcNAc
# In short: as §1
# [29] = molecular target: Fuc(a1-3)[Gal(b1-4)]GlcNAc(b1-3)Gal(b1-4)[Fuc(a1-3)]GlcNAc
# In short: as §1
# [30] = molecular target: Fuc(a1-3)[Gal(b1-4)]GlcNAc(b1-3)Gal(b1-4)[Fuc(a1-3)]GlcNAc(b1-3)Gal(b1-4)[Fuc(a1-3)]GlcNAc
# In short: as §1
# [31] = molecular target: Fuc(a1-3)[Gal(b1-4)]GlcNAc(b1-3)GalNAc
# In short: as §1
# [32] = molecular target: Fuc(a1-3)[Gal(b1-4)]GlcNAc(b1-6)GalNAc
# In short: as §1
# [33] = molecular target: Fuc(a1-3)[Gal(b1-4)]GlcNAc(b1-6)[Gal(b1-3)GlcNAc(b1-3)]Gal(b1-4)Glc
# In short: as §1
# [34] = molecular target: Fuc(a1-3)[Gal(b1-4)]GlcNAc6S
# In short: as §1
# [35] = molecular target: Fuc(a1-3)[Gal3S(b1-4)]Glc
# In short: as §1
# [36] = molecular target: Fuc(a1-3)[Gal3S(b1-4)]GlcNAc
# In short: as §1
# [37] = molecular target: Fuc(a1-3)[Gal3S(b1-4)]GlcNAc6S
# In short: as §1
binder,measurement,setting,value
CPA (Cicer arietinum) (protein) MAFSYLNLVLVTLTTLFFLQTTKVKSQKSVSFHITNFTISRPSITLQGTAEFLPNVLLLNDIEHPVFVVGRALYSKPITLWNNKTGKVASFVTSFTFDVQDLKKTVPGHGLVFFLAPSGSEIPFSSDGGNLGVVDGKNAFNRFVGVEFDNFVNSWDPKYSHVGINVNSLISTKTVKWNRVSGELVKVSIVYDSVSTTLTVIVTYKNGQISILSQLVDLKAVLPDTVNIGFSASTTLVSPRQLHNIHSWSFTSTFET,glycan array binding signal (z-score),[1],-0.562
same,glycan array binding signal (z-score),[2],-0.438
same,glycan array binding signal (z-score),[3],-0.86
same,glycan array binding signal (z-score),[4],-0.437
same,glycan array binding signal (z-score),[5],-0.219
same,glycan array binding signal (z-score),[6],-0.217
same,glycan array binding signal (z-score),[7],3.66
same,glycan array binding signal (z-score),[8],-0.522
same,glycan array binding signal (z-score),[9],-0.626
same,glycan array binding signal (z-score),[10],-0.386
same,glycan array binding signal (z-score),[11],-0.629
same,glycan array binding signal (z-score),[12],0.016
same,glycan array binding signal (z-score),[13],0.023
same,glycan array binding signal (z-score),[14],-0.299
same,glycan array binding signal (z-score),[15],0.719
same,glycan array binding signal (z-score),[16],-0.027
same,glycan array binding signal (z-score),[17],-0.38
same,glycan array binding signal (z-score),[18],-0.008
same,glycan array binding signal (z-score),[19],0.059
same,glycan array binding signal (z-score),[20],0.587
same,glycan array binding signal (z-score),[21],1.3
same,glycan array binding signal (z-score),[22],-0.026
same,glycan array binding signal (z-score),Fuc(a1-3)GlcNAc,-0.573
same,glycan array binding signal (z-score),[23],0.73
same,glycan array binding signal (z-score),[24],-0.407
same,glycan array binding signal (z-score),[25],-0.078
same,glycan array binding signal (z-score),[26],-0.405
same,glycan array binding signal (z-score),[27],0.593
same,glycan array binding signal (z-score),[28],-0.467
same,glycan array binding signal (z-score),[29],-0.535
same,glycan array binding signal (z-score),[30],-0.67
same,glycan array binding signal (z-score),[31],-0.02
same,glycan array binding signal (z-score),[32],0.181
same,glycan array binding signal (z-score),[33],-0.454
same,glycan array binding signal (z-score),[34],0.267
same,glycan array binding signal (z-score),[35],0.28
same,glycan array binding signal (z-score),[36],0.129
same,glycan array binding signal (z-score),[37],0.641
